No constants are given. Whether binding was seen depends on the method and setting. For part of these data: In cells and extracts the contact can be indirect. Some binding calls cover weakened binding; strength is not graded here. For part of these data: Where a sequence is shown, tags or fusion partners need not be part of it. Blank lines part the entries; values can stand above or below the molecule they belong to.
Key:
Flag-SENP2 (human) = target: T1, Flag-SENP2 (human) (UniProt Q9HC62); experiment: co-IP; 293T cells transfected for 48 h, RIPA lysates, IP and Western blot with anti-HA and anti-Flag antibodies; IP and reciprocal IP
T1 sequence: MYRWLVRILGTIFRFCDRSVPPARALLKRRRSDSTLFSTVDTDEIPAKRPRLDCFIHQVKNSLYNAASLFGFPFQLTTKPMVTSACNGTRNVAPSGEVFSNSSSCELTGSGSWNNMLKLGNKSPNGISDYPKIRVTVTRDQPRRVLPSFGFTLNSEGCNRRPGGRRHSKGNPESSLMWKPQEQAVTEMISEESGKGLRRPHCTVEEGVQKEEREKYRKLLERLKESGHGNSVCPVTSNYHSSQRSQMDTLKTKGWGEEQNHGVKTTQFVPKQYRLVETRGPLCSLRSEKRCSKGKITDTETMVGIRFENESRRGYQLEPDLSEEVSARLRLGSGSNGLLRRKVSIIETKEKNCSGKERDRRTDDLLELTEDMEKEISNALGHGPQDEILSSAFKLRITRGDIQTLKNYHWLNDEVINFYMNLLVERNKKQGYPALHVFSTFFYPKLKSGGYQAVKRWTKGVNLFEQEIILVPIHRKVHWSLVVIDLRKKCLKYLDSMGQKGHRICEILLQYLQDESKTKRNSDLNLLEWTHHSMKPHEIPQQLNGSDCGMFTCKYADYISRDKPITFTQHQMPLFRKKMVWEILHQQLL

Protein sequences, listed by entry. Tags and fused reporters are not part of them. Lines headed by an entry give the natural chain unless they say otherwise; changes in a name come on top. Residues count along the entry.
UniProt Q13485: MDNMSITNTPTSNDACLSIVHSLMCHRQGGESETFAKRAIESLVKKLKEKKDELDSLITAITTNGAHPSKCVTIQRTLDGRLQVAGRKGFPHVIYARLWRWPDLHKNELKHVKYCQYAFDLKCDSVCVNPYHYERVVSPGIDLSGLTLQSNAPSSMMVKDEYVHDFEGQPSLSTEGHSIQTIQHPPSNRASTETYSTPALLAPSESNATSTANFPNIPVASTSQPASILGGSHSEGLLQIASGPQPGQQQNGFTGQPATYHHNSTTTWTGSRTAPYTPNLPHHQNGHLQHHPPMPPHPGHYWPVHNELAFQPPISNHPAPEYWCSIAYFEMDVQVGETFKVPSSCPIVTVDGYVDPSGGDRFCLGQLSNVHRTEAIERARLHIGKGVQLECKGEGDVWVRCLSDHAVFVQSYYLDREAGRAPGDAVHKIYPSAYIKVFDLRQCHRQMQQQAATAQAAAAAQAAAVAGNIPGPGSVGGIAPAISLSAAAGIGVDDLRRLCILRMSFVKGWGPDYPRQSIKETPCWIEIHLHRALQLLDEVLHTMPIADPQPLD
GST-Smad4-MH1: residues 18-142 of Q13485
GST-Smad4 MH2 domain: residues 323-552 of Q13485
UniProt Q9H4L4: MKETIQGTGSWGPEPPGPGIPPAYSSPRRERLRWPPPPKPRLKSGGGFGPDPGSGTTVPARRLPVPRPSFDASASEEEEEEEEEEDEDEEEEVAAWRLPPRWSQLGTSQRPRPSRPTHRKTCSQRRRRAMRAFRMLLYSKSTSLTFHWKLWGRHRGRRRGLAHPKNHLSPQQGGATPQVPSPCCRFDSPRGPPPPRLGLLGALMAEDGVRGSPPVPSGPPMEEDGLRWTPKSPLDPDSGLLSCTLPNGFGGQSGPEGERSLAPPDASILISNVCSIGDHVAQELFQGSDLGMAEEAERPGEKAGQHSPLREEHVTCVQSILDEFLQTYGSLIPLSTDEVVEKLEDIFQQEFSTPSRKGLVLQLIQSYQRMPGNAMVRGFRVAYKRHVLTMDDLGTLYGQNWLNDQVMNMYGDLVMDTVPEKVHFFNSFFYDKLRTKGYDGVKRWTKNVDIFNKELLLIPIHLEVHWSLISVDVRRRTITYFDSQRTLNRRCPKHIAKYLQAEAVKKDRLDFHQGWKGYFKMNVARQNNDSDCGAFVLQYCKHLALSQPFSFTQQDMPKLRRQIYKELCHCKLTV

LexA-Smad4 = LexA-Smad4 (UniProt Q13485); experiment: two-hybrid; LexA-Smad4 as bait, Gal-AD-SENP variants as prey, L40 yeast; β-galactosidase liquid assay normalised by cell density
HA-Smad4 = HA-Smad4 (UniProt Q13485); experiment: co-IP; 293T cells transfected for 48 h, RIPA lysates, IP and Western blot with anti-HA and anti-Flag antibodies; IP and reciprocal IP
[1] = target: Smad4 (epitope-tagged, transfected; co-IP of Fig. 3C and Fig. S2A) (UniProt Q13485); experiment: co-IP; HeLa cells transfected for 48 h; IP and Western blot with anti-HA and anti-Flag antibodies; SENP3 as negative control for IP
[2] = target: endogenous Smad4 (human (endogenous in MDA-MB-231)) (UniProt Q13485); experiment: co-IP; endogenous proteins; nuclear fraction of MDA-MB-231 cells, with or without TGF-β; IP anti-Smad4, blot anti-SENP2
[3] = target: HA-Smad4 overexpressed in MDA-MB-231 cells (UniProt Q13485); experiment: co-IP; cytosol and nuclear fractions of HA-Smad4 overexpressing MDA-MB-231 cells, with or without TGF-β; IP anti-HA, blot anti-SENP2
[4] = target: Smad4 (epitope-tagged, transfected; co-IP of Fig. 3C and Fig. S2A) (UniProt Q13485); experiment: co-IP; co-IP of Fig. S2A; cells and antibodies not shown
GST-Smad4 MH2 domain = GST-Smad4 MH2 domain (UniProt Q13485); experiment: pull-down; recombinant His-SENP2 363-400 pulled down by GST or GST-Smad4 subdomain proteins; blot with anti-His
GST-Smad4-MH1 = GST-Smad4-MH1 (UniProt Q13485); experiment: as above

B3: SENP2 (epitope-tagged, transfected; co-IP of Figs 3C and 3D) (enzyme, UniProt Q9HC62-1 1-589)
chain: MYRWLVRILGTIFRFCDRSVPPARALLKRRRSDSTLFSTVDTDEIPAKRPRLDCFIHQVKNSLYNAASLFGFPFQLTTKPMVTSACNGTRNVAPSGEVFSNSSSCELTGSGSWNNMLKLGNKSPNGISDYPKIRVTVTRDQPRRVLPSFGFTLNSEGCNRRPGGRRHSKGNPESSLMWKPQEQAVTEMISEESGKGLRRPHCTVEEGVQKEEREKYRKLLERLKESGHGNSVCPVTSNYHSSQRSQMDTLKTKGWGEEQNHGVKTTQFVPKQYRLVETRGPLCSLRSEKRCSKGKITDTETMVGIRFENESRRGYQLEPDLSEEVSARLRLGSGSNGLLRRKVSIIETKEKNCSGKERDRRTDDLLELTEDMEKEISNALGHGPQDEILSSAFKLRITRGDIQTLKNYHWLNDEVINFYMNLLVERNKKQGYPALHVFSTFFYPKLKSGGYQAVKRWTKGVNLFEQEIILVPIHRKVHWSLVVIDLRKKCLKYLDSMGQKGHRICEILLQYLQDESKTKRNSDLNLLEWTHHSMKPHEIPQQLNGSDCGMFTCKYADYISRDKPITFTQHQMPLFRKKMVWEILHQQLL
binding [1]: binds

B4: endogenous SENP2 (enzyme, UniProt Q9HC62 1-589)
chain: MYRWLVRILGTIFRFCDRSVPPARALLKRRRSDSTLFSTVDTDEIPAKRPRLDCFIHQVKNSLYNAASLFGFPFQLTTKPMVTSACNGTRNVAPSGEVFSNSSSCELTGSGSWNNMLKLGNKSPNGISDYPKIRVTVTRDQPRRVLPSFGFTLNSEGCNRRPGGRRHSKGNPESSLMWKPQEQAVTEMISEESGKGLRRPHCTVEEGVQKEEREKYRKLLERLKESGHGNSVCPVTSNYHSSQRSQMDTLKTKGWGEEQNHGVKTTQFVPKQYRLVETRGPLCSLRSEKRCSKGKITDTETMVGIRFENESRRGYQLEPDLSEEVSARLRLGSGSNGLLRRKVSIIETKEKNCSGKERDRRTDDLLELTEDMEKEISNALGHGPQDEILSSAFKLRITRGDIQTLKNYHWLNDEVINFYMNLLVERNKKQGYPALHVFSTFFYPKLKSGGYQAVKRWTKGVNLFEQEIILVPIHRKVHWSLVVIDLRKKCLKYLDSMGQKGHRICEILLQYLQDESKTKRNSDLNLLEWTHHSMKPHEIPQQLNGSDCGMFTCKYADYISRDKPITFTQHQMPLFRKKMVWEILHQQLL
binding [2]: binds
binding [3]: binds

B5: SENP2^1~400 (domain or fragment, UniProt Q9HC62-1 1-400)
chain: MYRWLVRILGTIFRFCDRSVPPARALLKRRRSDSTLFSTVDTDEIPAKRPRLDCFIHQVKNSLYNAASLFGFPFQLTTKPMVTSACNGTRNVAPSGEVFSNSSSCELTGSGSWNNMLKLGNKSPNGISDYPKIRVTVTRDQPRRVLPSFGFTLNSEGCNRRPGGRRHSKGNPESSLMWKPQEQAVTEMISEESGKGLRRPHCTVEEGVQKEEREKYRKLLERLKESGHGNSVCPVTSNYHSSQRSQMDTLKTKGWGEEQNHGVKTTQFVPKQYRLVETRGPLCSLRSEKRCSKGKITDTETMVGIRFENESRRGYQLEPDLSEEVSARLRLGSGSNGLLRRKVSIIETKEKNCSGKERDRRTDDLLELTEDMEKEISNALGHGPQDEILSSAFKLRITRG
binding [4]: binds

B7: Flag-SENP2-N (aa 1~362) (domain or fragment, UniProt Q9HC62-1 1-362)
chain: MYRWLVRILGTIFRFCDRSVPPARALLKRRRSDSTLFSTVDTDEIPAKRPRLDCFIHQVKNSLYNAASLFGFPFQLTTKPMVTSACNGTRNVAPSGEVFSNSSSCELTGSGSWNNMLKLGNKSPNGISDYPKIRVTVTRDQPRRVLPSFGFTLNSEGCNRRPGGRRHSKGNPESSLMWKPQEQAVTEMISEESGKGLRRPHCTVEEGVQKEEREKYRKLLERLKESGHGNSVCPVTSNYHSSQRSQMDTLKTKGWGEEQNHGVKTTQFVPKQYRLVETRGPLCSLRSEKRCSKGKITDTETMVGIRFENESRRGYQLEPDLSEEVSARLRLGSGSNGLLRRKVSIIETKEKNCSGKERDRRT
binding (HA-Smad4): no binding

Continued, values first:

binding (Flag-SENP2 (human)): binds
Molecule: HA-Smad4 (from UniProt Q13485 1-552)

binding (LexA-Smad4): no binding
Molecule: Gal-AD-SENP3 (from UniProt Q9H4L4 1-574) (enzyme)

binding (LexA-Smad4): binds
B1: Gal-AD-SENP2 (enzyme, UniProt Q9HC62-1 1-589)
chain: MYRWLVRILGTIFRFCDRSVPPARALLKRRRSDSTLFSTVDTDEIPAKRPRLDCFIHQVKNSLYNAASLFGFPFQLTTKPMVTSACNGTRNVAPSGEVFSNSSSCELTGSGSWNNMLKLGNKSPNGISDYPKIRVTVTRDQPRRVLPSFGFTLNSEGCNRRPGGRRHSKGNPESSLMWKPQEQAVTEMISEESGKGLRRPHCTVEEGVQKEEREKYRKLLERLKESGHGNSVCPVTSNYHSSQRSQMDTLKTKGWGEEQNHGVKTTQFVPKQYRLVETRGPLCSLRSEKRCSKGKITDTETMVGIRFENESRRGYQLEPDLSEEVSARLRLGSGSNGLLRRKVSIIETKEKNCSGKERDRRTDDLLELTEDMEKEISNALGHGPQDEILSSAFKLRITRGDIQTLKNYHWLNDEVINFYMNLLVERNKKQGYPALHVFSTFFYPKLKSGGYQAVKRWTKGVNLFEQEIILVPIHRKVHWSLVVIDLRKKCLKYLDSMGQKGHRICEILLQYLQDESKTKRNSDLNLLEWTHHSMKPHEIPQQLNGSDCGMFTCKYADYISRDKPITFTQHQMPLFRKKMVWEILHQQLL

binding (HA-Smad4): binds
B2: Flag-SENP2 (enzyme, UniProt Q9HC62-1 1-589)
chain: MYRWLVRILGTIFRFCDRSVPPARALLKRRRSDSTLFSTVDTDEIPAKRPRLDCFIHQVKNSLYNAASLFGFPFQLTTKPMVTSACNGTRNVAPSGEVFSNSSSCELTGSGSWNNMLKLGNKSPNGISDYPKIRVTVTRDQPRRVLPSFGFTLNSEGCNRRPGGRRHSKGNPESSLMWKPQEQAVTEMISEESGKGLRRPHCTVEEGVQKEEREKYRKLLERLKESGHGNSVCPVTSNYHSSQRSQMDTLKTKGWGEEQNHGVKTTQFVPKQYRLVETRGPLCSLRSEKRCSKGKITDTETMVGIRFENESRRGYQLEPDLSEEVSARLRLGSGSNGLLRRKVSIIETKEKNCSGKERDRRTDDLLELTEDMEKEISNALGHGPQDEILSSAFKLRITRGDIQTLKNYHWLNDEVINFYMNLLVERNKKQGYPALHVFSTFFYPKLKSGGYQAVKRWTKGVNLFEQEIILVPIHRKVHWSLVVIDLRKKCLKYLDSMGQKGHRICEILLQYLQDESKTKRNSDLNLLEWTHHSMKPHEIPQQLNGSDCGMFTCKYADYISRDKPITFTQHQMPLFRKKMVWEILHQQLL

binding (GST-Smad4 MH2 domain): no binding
binding (GST-Smad4-MH1): binds
Molecule: DDLLELTEDMEKEISNALGHGPQDEILSSAFKLRITRG (domain or fragment, UniProt Q9HC62-1 363-400) [His-SENP2^363~400]

binding (LexA-Smad4): no binding
B6: Gal-AD-SENP2-N (SENP2 regulatory domain, aa 1~362) (domain or fragment, UniProt Q9HC62-1 1-362)
chain: MYRWLVRILGTIFRFCDRSVPPARALLKRRRSDSTLFSTVDTDEIPAKRPRLDCFIHQVKNSLYNAASLFGFPFQLTTKPMVTSACNGTRNVAPSGEVFSNSSSCELTGSGSWNNMLKLGNKSPNGISDYPKIRVTVTRDQPRRVLPSFGFTLNSEGCNRRPGGRRHSKGNPESSLMWKPQEQAVTEMISEESGKGLRRPHCTVEEGVQKEEREKYRKLLERLKESGHGNSVCPVTSNYHSSQRSQMDTLKTKGWGEEQNHGVKTTQFVPKQYRLVETRGPLCSLRSEKRCSKGKITDTETMVGIRFENESRRGYQLEPDLSEEVSARLRLGSGSNGLLRRKVSIIETKEKNCSGKERDRRT
